Residue numbers refer to the chain shown, from its start. Names may count otherwise. These are yes or no findings as the source states them, for the method shown. Binding seen in cells or lysates may run through a third protein. Some results given as binding are weak or reduced against the parent protein; the word gives no strength. For some of these results: Sequences can lack the tags named with a protein. Each block holds one molecule with its values, some of them ahead of it.
What was measured:
[1] = biological target: T1, Derlin-1 A45S (human) (UniProt Q9BUN8); test: pull-down; HEK293 cells treated with 50 μM MG132 for 12 hours; microsomes solubilised in 1% digitonin, 300 mM NaCl, 10 mM imidazole, pH 8.0; Derlin-1 held on Ni2+ beads overnight at 4°C; blots against Derlin-1 and CFTR
T1 sequence: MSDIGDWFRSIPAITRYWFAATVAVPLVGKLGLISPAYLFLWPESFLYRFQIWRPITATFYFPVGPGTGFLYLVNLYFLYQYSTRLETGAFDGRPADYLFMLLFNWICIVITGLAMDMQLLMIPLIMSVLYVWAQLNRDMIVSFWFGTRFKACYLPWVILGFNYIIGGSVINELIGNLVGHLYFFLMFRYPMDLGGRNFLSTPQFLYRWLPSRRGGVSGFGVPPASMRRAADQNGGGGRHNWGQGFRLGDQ

By UniProt entry, the sequences of proteins in these tests, tags left out. Where a name states a change or a piece, a line headed by the entry shows the natural chain unless it says otherwise. Chains listed by the source or under a name are the forms on record and can include a tag or linker.
CFTRΔF508 (P13569, form named): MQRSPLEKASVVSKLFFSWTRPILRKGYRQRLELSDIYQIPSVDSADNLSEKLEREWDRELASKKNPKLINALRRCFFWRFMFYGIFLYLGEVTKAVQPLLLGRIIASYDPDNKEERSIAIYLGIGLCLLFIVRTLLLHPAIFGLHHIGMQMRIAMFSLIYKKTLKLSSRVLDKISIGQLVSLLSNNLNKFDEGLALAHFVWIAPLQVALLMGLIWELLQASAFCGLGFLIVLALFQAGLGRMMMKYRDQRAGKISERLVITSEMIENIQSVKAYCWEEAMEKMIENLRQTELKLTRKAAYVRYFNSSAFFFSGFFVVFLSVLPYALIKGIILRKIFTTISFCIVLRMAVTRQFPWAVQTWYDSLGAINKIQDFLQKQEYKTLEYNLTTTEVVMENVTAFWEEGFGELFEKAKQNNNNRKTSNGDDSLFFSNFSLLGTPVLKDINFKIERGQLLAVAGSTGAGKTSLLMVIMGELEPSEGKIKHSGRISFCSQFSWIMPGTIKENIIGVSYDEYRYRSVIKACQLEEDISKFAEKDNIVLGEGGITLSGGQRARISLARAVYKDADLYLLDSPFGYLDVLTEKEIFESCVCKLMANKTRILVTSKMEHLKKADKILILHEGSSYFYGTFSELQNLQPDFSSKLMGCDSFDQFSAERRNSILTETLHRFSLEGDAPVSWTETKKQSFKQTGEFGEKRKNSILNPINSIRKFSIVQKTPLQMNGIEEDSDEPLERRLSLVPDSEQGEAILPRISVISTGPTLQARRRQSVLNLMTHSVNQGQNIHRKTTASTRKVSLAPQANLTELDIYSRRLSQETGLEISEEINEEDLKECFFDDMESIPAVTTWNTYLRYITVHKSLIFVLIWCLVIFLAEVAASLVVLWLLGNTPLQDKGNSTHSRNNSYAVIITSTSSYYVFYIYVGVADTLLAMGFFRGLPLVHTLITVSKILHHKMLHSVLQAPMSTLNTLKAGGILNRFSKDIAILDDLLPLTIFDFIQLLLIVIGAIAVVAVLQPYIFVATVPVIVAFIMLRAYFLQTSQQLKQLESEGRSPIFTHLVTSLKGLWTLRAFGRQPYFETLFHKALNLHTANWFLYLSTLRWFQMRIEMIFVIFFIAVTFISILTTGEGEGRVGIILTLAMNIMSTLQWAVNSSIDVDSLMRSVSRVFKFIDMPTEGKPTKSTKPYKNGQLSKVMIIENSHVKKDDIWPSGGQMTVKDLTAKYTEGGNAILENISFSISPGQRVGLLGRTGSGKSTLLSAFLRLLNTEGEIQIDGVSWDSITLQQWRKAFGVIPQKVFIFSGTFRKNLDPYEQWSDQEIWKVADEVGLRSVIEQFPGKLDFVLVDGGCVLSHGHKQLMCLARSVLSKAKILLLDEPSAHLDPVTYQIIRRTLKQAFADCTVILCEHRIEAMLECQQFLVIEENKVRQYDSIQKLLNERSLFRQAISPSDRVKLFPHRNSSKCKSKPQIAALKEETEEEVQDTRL

[2] = biological target: T2, Derlin-1 F91A (human) (UniProt Q9BUN8); test: as above
T2 sequence: T1 sequence with S45A, F91A

[3] = biological target: T3, Derlin-1 R49A (human) (UniProt Q9BUN8); test: as above
T3 sequence: T1 sequence with S45A, R49A

[4] = biological target: T4, Derlin-1 W53A (human) (UniProt Q9BUN8); test: as above
T4 sequence: T1 sequence with S45A, W53A

[5] = biological target: T5, Hrd1 (S. cerevisiae) (UniProt Q08109); test: co-IP; Dfm1 mutants with Hrd1 and Hrd3 of the HRD complex (Figure S1E); bait and conditions not told in the text shown
T5 sequence: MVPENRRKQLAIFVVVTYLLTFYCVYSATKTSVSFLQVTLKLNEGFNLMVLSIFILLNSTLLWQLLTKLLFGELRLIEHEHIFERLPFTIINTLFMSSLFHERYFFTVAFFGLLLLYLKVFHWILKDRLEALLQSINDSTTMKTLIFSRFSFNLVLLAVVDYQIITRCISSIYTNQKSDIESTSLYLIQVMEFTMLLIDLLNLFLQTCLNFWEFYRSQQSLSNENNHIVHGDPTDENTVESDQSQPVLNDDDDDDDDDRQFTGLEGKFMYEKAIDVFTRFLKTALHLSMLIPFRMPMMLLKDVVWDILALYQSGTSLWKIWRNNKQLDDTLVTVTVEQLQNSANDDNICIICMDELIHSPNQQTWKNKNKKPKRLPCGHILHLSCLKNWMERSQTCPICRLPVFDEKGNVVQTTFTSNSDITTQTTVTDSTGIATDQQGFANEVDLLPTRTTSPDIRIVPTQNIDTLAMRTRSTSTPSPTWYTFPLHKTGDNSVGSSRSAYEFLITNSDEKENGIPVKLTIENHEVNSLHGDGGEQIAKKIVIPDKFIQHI

[6] = biological target: T6, Hrd3 (S. cerevisiae) (UniProt Q05787); test: as above
T6 sequence: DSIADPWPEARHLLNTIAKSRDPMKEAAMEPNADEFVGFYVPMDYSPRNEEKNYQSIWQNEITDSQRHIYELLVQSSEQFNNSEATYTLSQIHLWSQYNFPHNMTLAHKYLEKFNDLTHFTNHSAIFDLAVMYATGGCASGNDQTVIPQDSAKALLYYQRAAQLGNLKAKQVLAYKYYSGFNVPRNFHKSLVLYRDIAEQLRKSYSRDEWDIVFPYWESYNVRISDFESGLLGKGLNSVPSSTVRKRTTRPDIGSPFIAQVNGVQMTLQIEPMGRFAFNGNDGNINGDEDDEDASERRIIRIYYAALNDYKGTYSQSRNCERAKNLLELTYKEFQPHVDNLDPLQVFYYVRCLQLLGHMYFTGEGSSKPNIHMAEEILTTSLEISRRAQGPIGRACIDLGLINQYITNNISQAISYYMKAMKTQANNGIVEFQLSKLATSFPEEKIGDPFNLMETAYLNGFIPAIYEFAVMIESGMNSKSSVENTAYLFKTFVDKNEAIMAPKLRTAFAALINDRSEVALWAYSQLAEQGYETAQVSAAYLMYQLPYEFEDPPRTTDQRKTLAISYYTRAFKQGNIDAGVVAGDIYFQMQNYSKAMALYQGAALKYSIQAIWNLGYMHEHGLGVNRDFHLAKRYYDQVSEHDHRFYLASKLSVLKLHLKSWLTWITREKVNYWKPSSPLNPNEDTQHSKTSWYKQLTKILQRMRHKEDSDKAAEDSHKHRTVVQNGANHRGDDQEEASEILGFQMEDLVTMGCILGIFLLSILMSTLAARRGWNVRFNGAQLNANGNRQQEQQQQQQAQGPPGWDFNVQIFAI

[7] = biological target: T7, Hmg2-GFP (S. cerevisiae) (UniProt P12684); test: co-IP; free polyubiquitin competition test: solubilised microsomes incubated with Lys48-linked polyubiquitin chains (2, 5, 10 μg) or buffer for one hour at 4°C, then GFP-Trap precipitation of Hmg2-GFP; blots for Cdc48, Dfm1-HA
T7 sequence (chain, polyubiquitin chain conjugated in cells (sites not printed)): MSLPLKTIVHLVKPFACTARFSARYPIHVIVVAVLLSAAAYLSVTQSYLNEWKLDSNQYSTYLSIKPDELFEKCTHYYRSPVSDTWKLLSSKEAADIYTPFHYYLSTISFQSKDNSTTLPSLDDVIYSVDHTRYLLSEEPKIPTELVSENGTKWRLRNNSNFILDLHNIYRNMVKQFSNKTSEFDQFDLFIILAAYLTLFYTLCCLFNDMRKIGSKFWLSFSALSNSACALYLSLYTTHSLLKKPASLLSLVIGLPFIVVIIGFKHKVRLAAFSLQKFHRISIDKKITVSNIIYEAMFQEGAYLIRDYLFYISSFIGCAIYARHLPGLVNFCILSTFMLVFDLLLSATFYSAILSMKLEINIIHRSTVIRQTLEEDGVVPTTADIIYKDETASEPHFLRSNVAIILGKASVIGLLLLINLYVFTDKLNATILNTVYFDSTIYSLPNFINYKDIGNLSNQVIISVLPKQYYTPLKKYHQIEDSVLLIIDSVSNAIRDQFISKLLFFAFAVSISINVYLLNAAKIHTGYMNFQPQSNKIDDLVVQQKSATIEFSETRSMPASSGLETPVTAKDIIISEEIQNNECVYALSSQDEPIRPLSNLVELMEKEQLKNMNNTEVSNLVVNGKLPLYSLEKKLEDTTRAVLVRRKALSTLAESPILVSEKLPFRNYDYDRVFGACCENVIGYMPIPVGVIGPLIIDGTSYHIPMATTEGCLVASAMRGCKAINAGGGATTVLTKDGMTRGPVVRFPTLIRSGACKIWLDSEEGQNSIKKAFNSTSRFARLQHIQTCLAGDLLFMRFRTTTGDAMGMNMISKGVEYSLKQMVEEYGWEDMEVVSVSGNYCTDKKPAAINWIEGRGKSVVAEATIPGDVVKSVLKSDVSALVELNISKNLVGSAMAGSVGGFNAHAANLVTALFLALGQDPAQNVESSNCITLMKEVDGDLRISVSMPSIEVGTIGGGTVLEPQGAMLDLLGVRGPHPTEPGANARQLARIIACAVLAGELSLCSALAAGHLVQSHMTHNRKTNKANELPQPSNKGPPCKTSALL

[8] = biological target: T7, Hmg2-GFP (S. cerevisiae); test: co-IP; substrate (Hmg2-GFP, Ste6*-GFP, CPY*-GFP with GFP-Trap; Pdr5*-Myc with Myc Trap) precipitated from yeast microsomes solubilised in Tween IP buffer (500 mM NaCl, 50 mM Tris pH 7.5, 10 mM EDTA, 1.5% Tween-20), overnight 4°C; blots with anti-HA, anti-Cdc48
[9] = biological target: T7, Hmg2-GFP (S. cerevisiae); test: condition: only after removal of the ubiquitin chain from Hmg2-GFP with Usp2Core; co-IP; solubilised microsomes treated with Usp2Core (5 μg, 1 hr, 37°C) to remove ubiquitin from Hmg2-GFP, then GFP-Trap precipitation of Hmg2-GFP; blots for ubiquitin, Cdc48, Dfm1-HA
[10] = biological target: T7, Hmg2-GFP (S. cerevisiae); test: condition: only with added free Lys48-linked polyubiquitin chains (2, 5, and 10 μg); co-IP; free polyubiquitin competition test: solubilised microsomes incubated with Lys48-linked polyubiquitin chains (2, 5, 10 μg) or buffer for one hour at 4°C, then GFP-Trap precipitation of Hmg2-GFP; blots for Cdc48, Dfm1-HA

Molecule: CFTRΔF508 (from UniProt P13569 1-1480)
binding [1]: no binding
binding [2]: binds
binding [3]: no binding
binding [4]: no binding

B1: Dfm1-HA (protein, UniProt Q12743 1-341)
chain: MAGPRNVRTLHGNGGRNNDVMGPKEFWLNIPPITRTLFTLAIVMTIVGRLNLINPWYFIYVWNLTFKKVQIWRLLTSCVMLSSRAMPALMELYSIYDRSSQLERGHFGPGLSNRRGPMVTVDYAYYLCFCILAITTATTIIYGSYYPVVLTSGFISCITYTWSIDNANVQIMFYGLIPVWGKYFPLIQLFISFVFNEGDFVISLIGFTTGYLYTCLDTHTLGPIWGMISRKADPTYGISPNGKFSTPWWFTSLYARITGAHNETATFNNNFANVPSSQRETRTFSGRGQRLGTAPATLSQTSGTDSGRASGSQLRSGPSNLNQFQGRGQRVGQTNSPSDSQ
binding [5]: binds
binding [6]: binds
binding [7]: binds
binding [8]: binds
binding [9]: no binding
binding [10]: no binding

B2: Dfm1-F107S (protein, UniProt Q12743 1-341)
chain: B1 chain with F107S
binding [5]: binds
binding [6]: binds
binding [8]: binds

B6: Dfm1-F58S (protein, UniProt Q12743 1-341)
chain: B1 chain with F58S
binding [5]: binds
binding [6]: binds
binding [8]: no binding

Further lines, results first:

binding [5]: binds
binding [6]: binds
binding [8]: binds
B3: Dfm1-Q101R (protein, UniProt Q12743 1-341)
chain: B1 chain with Q101R

binding [5]: binds
binding [6]: binds
binding [8]: no binding
B4: Dfm1-K67E (protein, UniProt Q12743 1-341)
chain: B1 chain with K67E

binding [5]: binds
binding [6]: binds
binding [8]: no binding
B5: Dfm1-L64V (protein, UniProt Q12743 1-341)
chain: B1 chain with L64V

Source: paper PMC8641752
